# Among all 310,000 compounds or so, about 14,000 (4.5%) showed an effect of 50% or more. The effect is printed as a negative number. The list shows a part of the results.
# Molecular target: human ether-à-go-go-related gene (hERG) potassium channel (human, UniProt Q12809)
# Test: primary screen, population patch clamp on CHO cells stably expressing hERG
# 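Also: peak tail current of the secondary pulse compared with the same well before compound.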
# human ether-à-go-go-related gene (hERG) potassium channel, sequence (Q12809 whole entry, looked up): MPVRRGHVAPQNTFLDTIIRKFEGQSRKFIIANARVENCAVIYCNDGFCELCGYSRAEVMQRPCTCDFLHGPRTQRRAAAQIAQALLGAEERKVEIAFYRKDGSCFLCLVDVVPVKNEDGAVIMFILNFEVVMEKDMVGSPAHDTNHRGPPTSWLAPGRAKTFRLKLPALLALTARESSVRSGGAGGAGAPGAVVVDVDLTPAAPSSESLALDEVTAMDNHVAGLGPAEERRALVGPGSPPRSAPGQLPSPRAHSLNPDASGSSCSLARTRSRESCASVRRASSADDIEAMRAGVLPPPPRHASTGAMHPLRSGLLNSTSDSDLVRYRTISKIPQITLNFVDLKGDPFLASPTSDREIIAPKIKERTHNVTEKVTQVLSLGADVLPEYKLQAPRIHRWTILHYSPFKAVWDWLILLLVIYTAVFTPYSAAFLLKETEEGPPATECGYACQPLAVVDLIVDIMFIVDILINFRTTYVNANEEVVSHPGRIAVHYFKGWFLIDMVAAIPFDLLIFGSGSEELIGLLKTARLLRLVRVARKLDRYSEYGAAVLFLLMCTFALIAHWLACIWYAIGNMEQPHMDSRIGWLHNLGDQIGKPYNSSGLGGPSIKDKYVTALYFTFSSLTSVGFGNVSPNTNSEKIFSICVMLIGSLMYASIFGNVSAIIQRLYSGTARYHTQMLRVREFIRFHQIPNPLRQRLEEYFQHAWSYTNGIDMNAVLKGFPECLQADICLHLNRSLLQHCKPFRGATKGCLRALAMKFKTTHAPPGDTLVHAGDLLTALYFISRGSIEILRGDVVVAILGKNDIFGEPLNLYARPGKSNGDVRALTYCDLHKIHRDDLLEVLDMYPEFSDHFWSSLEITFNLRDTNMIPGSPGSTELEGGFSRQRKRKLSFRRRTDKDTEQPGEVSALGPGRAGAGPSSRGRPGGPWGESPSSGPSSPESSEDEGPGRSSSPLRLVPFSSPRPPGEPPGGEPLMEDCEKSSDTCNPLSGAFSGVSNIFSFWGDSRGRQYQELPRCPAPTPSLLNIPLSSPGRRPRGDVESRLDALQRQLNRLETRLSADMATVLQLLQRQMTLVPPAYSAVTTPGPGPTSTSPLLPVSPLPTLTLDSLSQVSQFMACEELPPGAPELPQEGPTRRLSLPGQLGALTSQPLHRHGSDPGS
row,Compound,"hERG current change (%, negative = inhibition) at 10uM [%]"
1,CCN(CC)S(=O)(=O)c1cccc(NC(=O)CSc2nnc(N)s2)c1,14.9
2,COc1cc(CN2CCNC(=O)C2CC(=O)N2CCCN(C(C)=O)CC2)cc(OC)c1 (stereo not drawn),9.18
3,CCOC(=O)/C=C1\CN(Cc2cc(OC)c(OC)c(OC)c2)S(=O)(=O)c2ccc(C(F)(F)F)cc21,-11.3
4,C=CCNC(=O)C1CCN(c2c([N+](=O)[O-])cc(C(F)(F)F)cc2[N+](=O)[O-])CC1,10
5,COC(=O)c1ccc(N2CCN(CCNC(=O)Nc3ccc(OC)cc3)CC2)cc1,-0.192
6,Cc1ccc(SC(C)C(=O)Nc2ccc(S(=O)(=O)N3CCOCC3)cc2)cc1 (stereo not drawn),-31.9
7,O=S(=O)(c1ccc(F)cc1)N1CCCC1c1cccnc1 (stereo not drawn),3
8,COc1ccsc1C(=O)Nc1ccc(F)cc1F,2.66
9,CCC(=O)NC(=S)Nc1ccc(NC(=O)c2cccnc2)cc1,5.3
10,CCC1CCC(C(=O)NC(C(=O)Nc2ccc3c(c2)OCCO3)C(C)C)CC1 (stereo not drawn),2.88
11,COC(=O)c1ccc(NC(=O)C2CCCCC2C(=O)O)cc1 (stereo not drawn),21.9
12,COc1cc2nc(N3CCN(c4cc(C)ccc4C)CC3)nc(N)c2cc1OC.Cl,-35.6
13,CCCCCCn1c(N(CC)CC)nc2c1c(=O)[nH]c(=O)n2C,-63.6
14,O=C1CC(N2CCN(c3cccc(C(F)(F)F)c3)CC2)C(=O)N1c1ccccc1F (stereo not drawn),-18
15,COc1ccc(-n2cnc3cc(NS(=O)(=O)c4ccccc4)ccc32)cc1,7.83
16,CCOC(=O)/C(C#N)=C/c1cc2cc(C)c(C)cc2nc1Cl,7.18
17,COc1cccc(CNC(=O)COc2ccc(C(=O)c3ccccc3)cc2)c1,-11.7
18,CC(=O)c1sc(C(=O)O)c(-c2ccco2)c1-c1ccco1,10.8
19,COCc1c(C(=O)NCCOc2ccc(Cl)cc2)oc2ccccc12,-6.33
20,Cc1cccc(OCC(=O)OCC(=O)c2c(N)n(C)c(=O)n(C)c2=O)c1C,-1.84
21,O=C(NCc1cccs1)c1ccc(N2CCCC2=O)cc1,5.44
22,O=C(O)Cc1ccc2sc(-c3ccccc3)nc2c1,17.1

row,Compound,"hERG current change (%, negative = inhibition) at 10uM [%]"
1,CC(C)CCC(C(=O)[O-])C(C)CC(=O)NNC(=O)c1ccco1.[Na+] (stereo not drawn),5.43
2,Cc1ccc(C(=O)c2c(NC(=O)CSc3nnc(N)s3)sc3c2CCCC3)cc1,1.21
3,N#Cc1ccc2c(c1)nnn2-c1ccccc1,1.85
4,O=C(COC(=O)C1(c2ccc(Cl)cc2)CCCC1)Nc1ncc(C(F)(F)F)cc1Cl,-11.9
5,O=C(NN1CCOCC1)c1cccc(F)c1,12.8
6,COCCN(C(=O)CSc1nnc(-c2ccccc2F)n1C)c1c(N)n(Cc2ccccc2)c(=O)[nH]c1=O,12.1
7,COc1ccc(NC(=O)c2ccccc2Oc2ccccc2)cc1,2.68
8,Cc1cccc(C)c1OCC(O)CN1CCC(CN2C(=O)c3cccc4cccc(c34)C2=O)CC1.Cl (stereo not drawn),-76.2
9,O=C(NCCCn1ccnc1)Nc1ccc(Cl)cc1Cl,-13.9
10,COc1ccc(S(=O)(=O)Nc2ccccc2C(=O)NCc2cccnc2)cc1C,-24.8
11,COC(=O)C1=C(C)N(Cc2ccco2)C(=O)N[C@@H]1c1cccc(C(F)(F)F)c1,0.604
12,Cc1cc2nc3c(=O)[nH]c(=S)[nH]c3nc2cc1NC(=O)C(F)(F)F,30.4
13,O=C(/C=C/c1ccccc1F)N1CCN(c2ccccn2)CC1,-18.7
14,O=C(COc1cccnc1[N+](=O)[O-])c1ccc(Cl)s1,20.9
15,COc1ccccc1CCC(=O)Nc1ccc(C)cc1Cl,11.4
16,CCC1(c2ccccc2)NC(=O)N(CC(=O)c2ccc3c(c2)OCO3)C1=O (stereo not drawn),-4.15
17,CN1CCc2c(OCC(=O)N3CCCc4ccccc43)cccc2C1=O,5.9
18,C[n+]1c(-c2ccccc2)cc(-c2ccc(O)cc2)cc1-c1ccccc1.[O-][Cl+3]([O-])([O-])[O-],-61.4
19,CCOC(=O)C1=C(COC(=O)c2ccccc2[N+](=O)[O-])NC(=O)NC1C (stereo not drawn),22.3
20,CN(C)c1nc(C#N)nc(N(C)C)n1,18
21,Cc1ccc(N2CCCCn3c2nc2c3c(=O)n(CC(=O)O)c(=O)n2C)cc1,16.7
22,NC(=O)c1sc2nc3c(c(-c4ccccc4)c2c1N)CCC3,-18.4

row,Compound,"hERG current change (%, negative = inhibition) at 10uM [%]"
1,Cc1ccc(S(=O)(=O)NCCC(=O)OCC(=O)N(Cc2ccccc2)C(C)(C)C)cc1,1.63
2,Cc1cccc(C)c1NC(=O)CN1C(=O)N(C)Cc2ccccc21,20.1
3,N#Cc1cccc(C(c2nnnn2CCc2ccccc2)N2CCN(C3CCCCC3)CC2)c1 (stereo not drawn),-61
4,COc1ccc(C)cc1N(C(=O)CNC(=O)c1ccco1)C(C(=O)NC1CCCC1)c1cccnc1 (stereo not drawn),26.3
5,CC(C)Sc1snnc1-c1ccccc1,14.3
6,COc1ccc(/C=N/NC(=O)c2ccccc2)cc1OS(=O)(=O)c1ccccc1,-3.53
7,COc1cccc(C2(O)CCN(C(=O)C3CC3)CC2)c1,13
8,COc1cccc(N2CC(C(=O)Nc3nnc(SCC(=O)N4CCCC4)s3)CC2=O)c1 (stereo not drawn),11
9,O=C(C1=C(O)C(=O)N(CC2CCCO2)C1c1ccc(Cl)cc1)c1ccco1 (stereo not drawn),12.3
10,CC(C)(C)OC(=O)N1CCOCCOCCN(C(=O)OC(C)(C)C)CCOCCOCC1,7
11,Cc1cc(=O)oc2cc(OCc3ccc(C(=O)OCC(=O)Nc4ccccc4OC(F)F)cc3)ccc12,8.79
12,O=S(=O)(NCCc1csc(-c2cccnc2)n1)c1ccc(F)cc1,-9.39
13,O=C(Nc1ccc(C(=O)N2CCOCC2)cc1)c1cccc(Br)c1,3.11
14,CC1CC(=O)Nc2ccccc2N1C(=O)CSc1nnnn1C(C)C (stereo not drawn),0.74
15,C=C(C(=O)c1ccccc1)C(C(=C)C(=O)c1ccccc1)c1ccc(OC)cc1,0.181
16,COc1ccc(C(=S)N(C)C)cc1OC,8.27
17,O=[N+]([O-])c1ccc(COc2ncnc3ccccc23)cc1,-45.3
18,C=C(C)CSc1nc2c(c(=O)[nH]c(=O)n2C)n1CCC(C)C,-15.9
19,O=C(Nc1nccs1)C(=O)c1c[nH]c2ccccc12,24.5
20,COc1cc2cc(-c3ccc(OC)c(OC)c3C)nc(N)c2cc1OC,-34
21,CCOC(=O)C1CCCN(Cc2c(C(=O)N3CCCCC3)nc3c(C)cccn23)C1 (stereo not drawn),-4.3
22,CN(C)Cc1c(O)ccc2oc(Cc3ccccc3)cc12,-38

row,Compound,"hERG current change (%, negative = inhibition) at 10uM [%]"
1,CCN(Cc1ccccc1)C(c1cccs1)c1nnnn1C1CCCCC1 (stereo not drawn),-1.66
2,COc1cccc(NC(=O)c2ccccc2-c2nc(-c3ccc(F)cc3)no2)c1,8.36
3,O=C(CC1C(=O)NCCN1Cc1ccccc1C(F)(F)F)NC1CCC1 (stereo not drawn),15.2
4,CCC(C)C(NC(=O)c1ccccc1)C(=O)Nc1ccc(S(=O)(=O)Nc2cc(C)nc(C)n2)cc1 (stereo not drawn),8.24
5,COc1ccc(CC(=O)O/N=C(\N)c2ccncc2)cc1,-2.59
6,CCn1cc(C(=O)N2CCCC2)c(=O)c2cc(S(=O)(=O)N3CC(C)CC(C)C3)ccc21 (stereo not drawn),6.43
7,Cc1ccc2[nH]c(=O)c(CC(=O)O)c(-c3ccccc3)c2c1,17.7
8,COc1cccc(OCc2cc(C(=O)N3CCN(C4CCCC4)CC3)no2)c1,-21.3
9,NC(=S)NC(=O)/C=C/c1ccccc1,13.1
10,C[C@H](C(=O)O)c1ccc(-c2ccccc2)c(F)c1,9.43
11,C[C@H](NC(=O)c1cc2cc(Cl)ccc2n1C)C(=O)N[C@@H](C(=O)O)c1ccccc1,13.4
12,Cc1[nH]c2ccc(C(=O)NCCN3CCOCC3)cc2c1C,15
13,O=C(NC(Cc1ccccc1)C(=O)O)/C(=C/c1ccc(F)cc1)NC(=O)c1ccccc1 (stereo not drawn),8.36
14,O=C(Cn1nc(-c2nn(CC(=O)c3ccccc3)c3[n+]2CCCCC3)[n+]2c1CCCCC2)c1ccccc1.[Br-],12.8
15,Cc1onc(-c2ccccc2)c1C(=O)N/N=C/C(Br)=C/c1ccccc1,-5.21
16,CCOC(=O)NCc1ccc(S(=O)(=O)Nc2ccc(C)cc2)cc1,-14.6
17,COc1ccc2oc(C(=O)NCC3CCCO3)c(C)c2c1 (stereo not drawn),14.2
18,COc1ccc(S(=O)(=O)N2CCOCC2)cc1C(=O)Nc1cc(C)on1,2.19
19,CCC(C)[C@H](NC(=O)Nc1ccc(C)cc1C)C(=O)O (stereo partly drawn),-17.1
20,CCc1nc(SCC(=O)c2ccc(C)c(C)c2)n[nH]1,4.1
21,Cc1csc(NC(=O)c2nc3nc(C)cc(C)n3n2)n1,0.212
